Test results: article PMC10853557, “Structural insights into histone exchange by human SRCAP complex” (Cell Discovery, 2024)

Experiments:
[1] = molecular target: T1, RUVBL1 subunit of SRCAP-C (human, UniProt Q9Y265); assay: cryo-EM structure; purified SRCAP-C mixed 1:1 with acetylated 108N12 nucleosome, 1 mM ATP 30 min at 30 °C, then 0.5 mM ADP-BeFx; gradient fixation with glutaraldehyde; ADP-BeFx-bound state; ARP module refined from apo and ADP-BeFx particles, ACTB^b from the ADP sample; conditions: both partners purified
T1 construct: RUVBL1, human, full-length ORF; Stands in a RUVBL1–RUVBL2 hexamer; source: Expi293F suspension cells, co-transfected with the other SRCAP-C subunits, purified as the complex

SRCAP subunit of SRCAP-C = SRCAP subunit of SRCAP-C (human, UniProt Q6ZRS2 1-3230); assay: as above; conditions: both partners purified
SRCAP subunit of SRCAP-C, sequence (Q6ZRS2 whole entry): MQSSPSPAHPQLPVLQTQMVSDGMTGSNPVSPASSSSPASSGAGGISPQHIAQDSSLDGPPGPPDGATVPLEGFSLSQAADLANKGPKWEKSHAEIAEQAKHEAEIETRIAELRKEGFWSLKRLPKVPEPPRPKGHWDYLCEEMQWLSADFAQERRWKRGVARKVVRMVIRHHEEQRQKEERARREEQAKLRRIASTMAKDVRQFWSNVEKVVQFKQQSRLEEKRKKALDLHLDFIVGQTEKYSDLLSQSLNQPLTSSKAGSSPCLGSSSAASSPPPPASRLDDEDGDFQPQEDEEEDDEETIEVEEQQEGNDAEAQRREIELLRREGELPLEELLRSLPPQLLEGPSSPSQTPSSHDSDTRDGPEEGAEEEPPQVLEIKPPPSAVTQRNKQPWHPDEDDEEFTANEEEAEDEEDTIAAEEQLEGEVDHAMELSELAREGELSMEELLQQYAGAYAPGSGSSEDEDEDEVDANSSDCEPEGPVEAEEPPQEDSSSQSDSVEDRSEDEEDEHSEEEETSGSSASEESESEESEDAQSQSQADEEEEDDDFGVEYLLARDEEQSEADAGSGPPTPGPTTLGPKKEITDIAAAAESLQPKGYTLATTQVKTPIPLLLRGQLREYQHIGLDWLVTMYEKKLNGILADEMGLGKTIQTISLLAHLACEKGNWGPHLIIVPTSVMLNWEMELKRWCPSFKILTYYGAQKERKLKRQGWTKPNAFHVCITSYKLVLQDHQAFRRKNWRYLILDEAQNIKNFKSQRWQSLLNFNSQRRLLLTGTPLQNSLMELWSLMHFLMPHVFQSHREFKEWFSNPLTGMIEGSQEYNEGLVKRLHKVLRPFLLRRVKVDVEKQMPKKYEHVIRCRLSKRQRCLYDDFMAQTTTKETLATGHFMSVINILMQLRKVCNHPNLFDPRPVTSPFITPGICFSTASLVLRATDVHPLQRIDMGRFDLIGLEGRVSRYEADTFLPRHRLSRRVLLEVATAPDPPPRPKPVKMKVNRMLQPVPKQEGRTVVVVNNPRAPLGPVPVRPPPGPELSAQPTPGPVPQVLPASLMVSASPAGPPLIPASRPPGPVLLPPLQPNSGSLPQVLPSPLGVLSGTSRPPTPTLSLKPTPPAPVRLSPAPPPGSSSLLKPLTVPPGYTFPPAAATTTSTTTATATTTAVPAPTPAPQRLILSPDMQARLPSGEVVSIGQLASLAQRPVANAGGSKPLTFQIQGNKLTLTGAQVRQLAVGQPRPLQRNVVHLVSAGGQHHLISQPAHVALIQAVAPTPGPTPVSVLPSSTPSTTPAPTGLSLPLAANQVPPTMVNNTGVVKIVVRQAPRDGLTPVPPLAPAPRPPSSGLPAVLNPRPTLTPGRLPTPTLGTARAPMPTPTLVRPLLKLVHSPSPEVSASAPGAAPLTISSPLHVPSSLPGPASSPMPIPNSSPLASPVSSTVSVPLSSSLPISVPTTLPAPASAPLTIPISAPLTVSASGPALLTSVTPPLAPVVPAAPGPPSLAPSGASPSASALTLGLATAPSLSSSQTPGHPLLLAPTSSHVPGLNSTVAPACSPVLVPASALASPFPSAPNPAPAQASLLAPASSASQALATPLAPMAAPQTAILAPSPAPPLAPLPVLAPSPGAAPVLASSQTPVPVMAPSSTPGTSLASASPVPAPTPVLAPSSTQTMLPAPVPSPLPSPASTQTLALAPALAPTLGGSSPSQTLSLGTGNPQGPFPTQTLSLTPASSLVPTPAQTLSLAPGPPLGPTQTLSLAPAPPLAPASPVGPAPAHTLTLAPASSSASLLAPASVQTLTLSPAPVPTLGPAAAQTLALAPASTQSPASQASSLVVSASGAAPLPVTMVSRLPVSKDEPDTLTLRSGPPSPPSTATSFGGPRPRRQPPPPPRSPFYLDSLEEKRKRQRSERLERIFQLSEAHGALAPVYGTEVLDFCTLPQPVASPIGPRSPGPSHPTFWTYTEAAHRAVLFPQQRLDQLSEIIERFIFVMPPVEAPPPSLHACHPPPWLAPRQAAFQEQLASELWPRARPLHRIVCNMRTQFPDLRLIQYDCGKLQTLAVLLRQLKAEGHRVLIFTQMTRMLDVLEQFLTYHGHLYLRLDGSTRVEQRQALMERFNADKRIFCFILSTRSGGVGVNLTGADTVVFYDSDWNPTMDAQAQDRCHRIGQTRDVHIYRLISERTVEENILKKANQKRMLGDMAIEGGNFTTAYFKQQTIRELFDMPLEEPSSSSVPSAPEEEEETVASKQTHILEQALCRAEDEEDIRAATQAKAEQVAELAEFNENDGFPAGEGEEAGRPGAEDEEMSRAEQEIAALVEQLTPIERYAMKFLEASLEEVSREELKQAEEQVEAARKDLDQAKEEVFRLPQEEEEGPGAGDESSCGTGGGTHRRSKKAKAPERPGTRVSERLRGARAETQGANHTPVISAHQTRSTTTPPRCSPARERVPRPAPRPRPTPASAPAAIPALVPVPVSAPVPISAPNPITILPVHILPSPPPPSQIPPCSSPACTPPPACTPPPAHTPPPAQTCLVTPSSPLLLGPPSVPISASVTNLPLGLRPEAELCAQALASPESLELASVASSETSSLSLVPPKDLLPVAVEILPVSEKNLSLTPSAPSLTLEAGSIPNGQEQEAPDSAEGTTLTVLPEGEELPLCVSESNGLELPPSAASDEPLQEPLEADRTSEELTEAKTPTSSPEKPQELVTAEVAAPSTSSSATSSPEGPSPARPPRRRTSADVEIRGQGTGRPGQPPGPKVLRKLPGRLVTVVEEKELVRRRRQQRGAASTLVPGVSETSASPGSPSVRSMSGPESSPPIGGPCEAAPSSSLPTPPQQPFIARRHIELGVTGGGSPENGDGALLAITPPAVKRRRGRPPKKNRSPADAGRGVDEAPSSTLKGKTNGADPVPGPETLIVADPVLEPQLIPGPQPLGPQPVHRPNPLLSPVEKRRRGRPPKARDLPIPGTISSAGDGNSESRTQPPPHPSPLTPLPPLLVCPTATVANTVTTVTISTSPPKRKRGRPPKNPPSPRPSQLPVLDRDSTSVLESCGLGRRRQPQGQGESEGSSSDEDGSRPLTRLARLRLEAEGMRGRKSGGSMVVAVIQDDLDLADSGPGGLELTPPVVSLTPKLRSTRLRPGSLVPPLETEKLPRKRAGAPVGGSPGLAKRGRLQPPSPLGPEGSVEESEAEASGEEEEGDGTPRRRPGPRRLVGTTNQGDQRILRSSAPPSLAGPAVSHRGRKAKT

T1 sequence (Q9Y265 whole entry): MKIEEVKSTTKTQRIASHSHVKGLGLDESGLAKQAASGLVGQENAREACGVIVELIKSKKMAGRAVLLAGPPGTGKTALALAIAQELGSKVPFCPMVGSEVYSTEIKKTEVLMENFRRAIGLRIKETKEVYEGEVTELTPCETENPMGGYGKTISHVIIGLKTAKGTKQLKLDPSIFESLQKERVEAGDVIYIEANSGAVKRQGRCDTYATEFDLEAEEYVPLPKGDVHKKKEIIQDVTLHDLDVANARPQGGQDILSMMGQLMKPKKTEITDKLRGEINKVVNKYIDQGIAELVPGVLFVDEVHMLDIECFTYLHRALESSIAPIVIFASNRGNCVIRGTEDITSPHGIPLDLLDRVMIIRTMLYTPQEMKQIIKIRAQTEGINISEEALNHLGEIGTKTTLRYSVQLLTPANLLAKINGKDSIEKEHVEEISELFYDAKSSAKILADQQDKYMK

binding result [1]: binds
binding result (SRCAP subunit of SRCAP-C): binds
B1: ARP6 subunit of SRCAP-C (natural protein)
chain: not shown
notes: ARP6 (actin-related protein 6), human, full-length ORF; source: Expi293F suspension cells, co-transfected with the other SRCAP-C subunits, purified as the complex
